In PMC2447299:
Like-named read-outs stand apart in the source and are kept apart here. Results are given in words; binding and its absence hold for the method and conditions named. Some binding calls cover weakened binding; strength is not graded here. For some of these results: Tags and fused reporters may be left off the sequences shown.

The chains behind the UniProt entries cited, without tags or fusion partners. Where a name states a change or a piece, a line headed by the entry shows the natural chain unless it says otherwise. A line that says so, or that is headed by a name, gives the form on record, which may keep a tag or linker.
UniProt P51875: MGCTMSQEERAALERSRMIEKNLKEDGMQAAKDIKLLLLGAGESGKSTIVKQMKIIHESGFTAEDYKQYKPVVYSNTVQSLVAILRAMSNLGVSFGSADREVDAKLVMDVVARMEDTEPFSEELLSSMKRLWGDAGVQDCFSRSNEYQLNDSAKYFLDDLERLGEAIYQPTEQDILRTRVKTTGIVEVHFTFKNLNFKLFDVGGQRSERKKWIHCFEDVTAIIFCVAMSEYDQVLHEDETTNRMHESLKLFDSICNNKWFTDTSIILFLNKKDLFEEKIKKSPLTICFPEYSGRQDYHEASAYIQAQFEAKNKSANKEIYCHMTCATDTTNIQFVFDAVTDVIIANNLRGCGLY
GOA-1-QL (P51875, form named): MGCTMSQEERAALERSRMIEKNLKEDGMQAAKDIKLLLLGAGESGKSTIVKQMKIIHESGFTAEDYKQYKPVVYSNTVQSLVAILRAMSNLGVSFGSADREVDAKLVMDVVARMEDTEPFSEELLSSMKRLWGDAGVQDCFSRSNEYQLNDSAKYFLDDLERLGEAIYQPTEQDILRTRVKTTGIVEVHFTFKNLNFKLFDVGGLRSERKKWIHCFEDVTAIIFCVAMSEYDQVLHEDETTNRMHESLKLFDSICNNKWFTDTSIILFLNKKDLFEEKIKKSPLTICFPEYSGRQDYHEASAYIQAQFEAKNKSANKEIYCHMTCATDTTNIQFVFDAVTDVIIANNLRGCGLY

Key:
[1] = molecular target: T1, F44B9.6 (LIN-36) (C. elegans) (UniProt P34427); assay: two-hybrid; yeast mating assay of Figure 1, reversed configuration: candidate inserts as bait, G-alpha subunits or candidates as prey; growth on Leu-/Trp-/His-/Ade- medium
T1 sequence: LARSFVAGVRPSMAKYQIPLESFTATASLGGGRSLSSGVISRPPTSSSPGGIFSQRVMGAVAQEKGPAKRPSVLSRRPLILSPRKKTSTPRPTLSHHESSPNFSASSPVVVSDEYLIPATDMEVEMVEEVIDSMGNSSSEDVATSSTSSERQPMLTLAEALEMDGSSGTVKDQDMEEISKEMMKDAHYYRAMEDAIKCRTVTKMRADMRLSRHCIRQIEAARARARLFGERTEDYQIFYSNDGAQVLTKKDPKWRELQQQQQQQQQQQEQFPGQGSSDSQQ

F59H5.1 (C. elegans) = molecular target: T2, F59H5.1 (C. elegans) (UniProt Q9TZI4); assay: as above
T2 sequence: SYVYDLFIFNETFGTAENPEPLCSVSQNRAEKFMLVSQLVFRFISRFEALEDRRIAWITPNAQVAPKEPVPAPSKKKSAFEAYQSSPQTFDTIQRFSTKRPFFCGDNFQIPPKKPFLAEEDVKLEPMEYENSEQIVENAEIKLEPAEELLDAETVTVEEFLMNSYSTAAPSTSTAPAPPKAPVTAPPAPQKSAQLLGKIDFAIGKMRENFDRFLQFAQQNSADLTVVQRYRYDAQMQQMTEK

GPA-7-QL (C. elegans) [2] = molecular target: T3, GPA-7-QL (C. elegans) (UniProt Q21917); assay: two-hybrid; library screen: G-alpha subunit as bait (pGBK-T7), mixed stage C. elegans N2 cDNA library in pACT as prey; selection on plates lacking His, Trp, Leu, Ade and X-gal; rescued preys re-tested by mating with the original and control baits
T3 sequence: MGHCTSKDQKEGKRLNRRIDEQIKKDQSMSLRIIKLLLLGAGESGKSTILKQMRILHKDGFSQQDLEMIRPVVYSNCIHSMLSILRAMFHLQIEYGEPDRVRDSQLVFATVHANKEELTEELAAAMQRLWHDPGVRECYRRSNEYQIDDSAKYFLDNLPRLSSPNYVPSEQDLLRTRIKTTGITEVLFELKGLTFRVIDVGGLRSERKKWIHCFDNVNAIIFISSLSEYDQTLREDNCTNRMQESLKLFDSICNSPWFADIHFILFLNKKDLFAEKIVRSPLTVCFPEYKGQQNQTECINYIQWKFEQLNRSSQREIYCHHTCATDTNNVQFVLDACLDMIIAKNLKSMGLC

GPA-7 (C. elegans) = molecular target: T4, GPA-7 (C. elegans) (UniProt Q21917); assay: two-hybrid; yeast mating assay of Figure 1: G-alpha subunits, wild type and GTPase-deficient (QL), as bait and candidates as prey; growth on Leu-/Trp-/His-/Ade- medium
T4 sequence: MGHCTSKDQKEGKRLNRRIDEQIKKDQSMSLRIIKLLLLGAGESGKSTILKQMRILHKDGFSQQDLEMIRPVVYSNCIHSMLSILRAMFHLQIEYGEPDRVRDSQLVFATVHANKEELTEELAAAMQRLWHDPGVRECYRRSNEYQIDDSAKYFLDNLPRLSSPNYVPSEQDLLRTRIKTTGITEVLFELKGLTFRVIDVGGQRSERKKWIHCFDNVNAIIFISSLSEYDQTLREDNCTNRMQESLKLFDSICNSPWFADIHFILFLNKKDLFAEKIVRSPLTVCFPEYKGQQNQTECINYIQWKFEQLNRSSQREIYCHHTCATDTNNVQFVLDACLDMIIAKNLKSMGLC

GPA-7-QL (C. elegans) [3] = molecular target: T3, GPA-7-QL (C. elegans); assay: as above
GPA-7-QL (C. elegans) [4] = molecular target: T3, GPA-7-QL (C. elegans); assay: two-hybrid; large yeast mating matrix: 197 candidate preys against the original baits and control baits (empty vector, p53, C. elegans G subunits, frameshifted GPA-1); AH109 bait x Y187 prey, 30 C, growth on LTHA- plates
GPA-13 (C. elegans) [5] = molecular target: T5, GPA-13 (C. elegans) (UniProt Q9XTB2); assay: two-hybrid; library screen: G-alpha subunit as bait (pGBK-T7), mixed stage C. elegans N2 cDNA library in pACT as prey; selection on plates lacking His, Trp, Leu, Ade and X-gal; rescued preys re-tested by mating with the original and control baits
T5 sequence: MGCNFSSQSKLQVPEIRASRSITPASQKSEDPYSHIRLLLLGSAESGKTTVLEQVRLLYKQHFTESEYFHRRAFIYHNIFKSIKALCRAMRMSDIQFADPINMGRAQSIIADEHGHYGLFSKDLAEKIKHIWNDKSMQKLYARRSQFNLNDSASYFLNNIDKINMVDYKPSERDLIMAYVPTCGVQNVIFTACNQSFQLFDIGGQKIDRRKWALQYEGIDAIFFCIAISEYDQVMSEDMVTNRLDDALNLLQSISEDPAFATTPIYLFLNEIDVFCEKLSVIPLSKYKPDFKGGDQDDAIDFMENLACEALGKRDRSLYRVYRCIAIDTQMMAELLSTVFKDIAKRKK

GPA-13 (C. elegans) [6] = molecular target: T5, GPA-13 (C. elegans); assay: two-hybrid; yeast mating assay of Figure 1: G-alpha subunits, wild type and GTPase-deficient (QL), as bait and candidates as prey; growth on Leu-/Trp-/His-/Ade- medium
GPA-13 (C. elegans) [7] = molecular target: T5, GPA-13 (C. elegans); assay: two-hybrid; large yeast mating matrix: 197 candidate preys against the original baits and control baits (empty vector, p53, C. elegans G subunits, frameshifted GPA-1); AH109 bait x Y187 prey, 30 C, growth on LTHA- plates
GOA-1 (C. elegans) [8] = molecular target: GOA-1 (C. elegans) (UniProt P51875); assay: two-hybrid; library screen: G-alpha subunit as bait (pGBK-T7), mixed stage C. elegans N2 cDNA library in pACT as prey; selection on plates lacking His, Trp, Leu, Ade and X-gal; rescued preys re-tested by mating with the original and control baits
GOA-1-QL (C. elegans) = GOA-1-QL (C. elegans) (UniProt P51875); assay: two-hybrid; yeast mating assay of Figure 1: G-alpha subunits, wild type and GTPase-deficient (QL), as bait and candidates as prey; growth on Leu-/Trp-/His-/Ade- medium
GOA-1 (C. elegans) [9] = molecular target: GOA-1 (C. elegans) (UniProt P51875); assay: two-hybrid; large yeast mating matrix: 197 candidate preys against the original baits and control baits (empty vector, p53, C. elegans G subunits, frameshifted GPA-1); AH109 bait x Y187 prey, 30 C, growth on LTHA- plates
[10] = molecular target: T1, F44B9.6 (LIN-36) (C. elegans); assay: two-hybrid; yeast mating assay of Figure 1, reversed configuration: candidate inserts as bait, G-alpha subunits or candidates as prey; growth on Leu-/Trp-/His-/Ade- medium; remark: listed apart in the source
[11] = molecular target: T6, GPA-7 fused to the transmembrane domain of Pat-3 (pRP2234) (C. elegans) (UniProt Q21917); assay: membrane recruitment assay; reversed experiment: GFP-NHR-22 co-expressed with GPA-7 fused to the transmembrane domain of Pat-3 in C. elegans muscle cells; not shown
T6 sequence: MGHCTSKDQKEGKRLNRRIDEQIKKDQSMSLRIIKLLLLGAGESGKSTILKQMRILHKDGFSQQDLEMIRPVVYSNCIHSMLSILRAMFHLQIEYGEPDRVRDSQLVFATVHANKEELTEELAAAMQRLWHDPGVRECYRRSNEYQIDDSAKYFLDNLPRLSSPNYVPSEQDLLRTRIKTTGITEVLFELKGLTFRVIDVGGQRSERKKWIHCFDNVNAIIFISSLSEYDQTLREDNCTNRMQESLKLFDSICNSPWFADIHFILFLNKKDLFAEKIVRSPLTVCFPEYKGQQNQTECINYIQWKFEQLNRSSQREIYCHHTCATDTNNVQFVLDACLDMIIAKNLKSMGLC

GOA-1 (from UniProt P51875 1-354)
binding [1]: binds | binding (F59H5.1 (C. elegans)): binds

B1: K06A1.4 (NHR-22) (domain or fragment, UniProt Q09587 271-579)
chain: CQRVLSNSPPFDIHQASTSHAGFIQHVQFYPVVEVENKIFELVDHYVRTEASLNDRRKIMYTDTQIRDVFDTTCECPYENHQLKPFNYKSFCGFVKHDFVMILDYVNQFPEFQALHKNDKNVVYRMACAVDSMLASAYYSYKVGIEKERLILFNGDYINMNPIPISGDEPGAGTEFQTPQEHEKYKTLMPLKLKQYFDLAIPFARLEVSFEEYVLLKALIIWQISNYRLLEEGRAICARQRDTIVQALHKVVEERGDEDPAIRVGQLLLSMSYITEQVQAMTNSYLVMTFFDVVSCDSIMYDLLSFRDD
binding (GPA-7-QL (C. elegans) [2]): binds | binding (GPA-7 (C. elegans)): binds | binding (GPA-7-QL (C. elegans) [3]): binds | binding (GPA-7-QL (C. elegans) [4]): binds

B2: Y45G5AM.1 (domain or fragment, UniProt G5EEM0 15-400)
chain: CLVCQDFASGYHYGVPSCVGCKTFFRRTIMKKQKYICQFEGNCPVDKTIRCACRYCRFEKCLSVGMDRNALQQNRDPIGYTKRTRRPKKELKTTSDCSSDEGASTPPSVSPLQLSPPPISPLLFQAAPLKPRRCILQTLAEREKCANDLRLSEYLPIRSLHEALCSKALLNDTAFLEKWGQPSERHQIFDLRFVNHDDYHYWHERDWFLLTEYAKTFDVFEALDYQDKAELVRHAAITVPVLVQVWNSPDYGPDTIVFPDGAYFDRTPEPTRPAGLNRKKYQMLDLVLKPFRDLQLDATEFAAFKAVTFLNPDADISLPARKLVNNERVRITKQLYGYMAMKDDVDTAIERFARLVLMGTSMSKMACESKEAVWIADFFENIGFSA
binding (GPA-13 (C. elegans) [5]): binds | binding (GPA-13 (C. elegans) [6]): binds | binding (GPA-13 (C. elegans) [7]): binds

B3: F15D3.1, Dystrophin (DYS-1) (domain or fragment, UniProt Q9TW65 1948-2241)
chain: VREVPVDEYEETANISSGDELQDHKISSAVPDSESEIASMFEVLDSIEDSHTNFEEFPFDYLDSADDDLKKTLLKLESCEKTLAKNEMTINIAQAENARERITMLRQMALQRKDKLPKFNEEWNAMQELIQLADALVDEAERYESDQIPQMDRKSAPNVLGELRKRVANAEGPVIDLVKKLSQLVPRMQEDSPKSQDIRQKVYGIEDRFRRVGQAEGAAISKALSSALTEPELKLELDEVVRWCEMAEKEAAQNVNSLDGDGLEKLDGRLAQFTKELQERKDDMVQLEMAKNMI
binding (GPA-13 (C. elegans) [5]): binds | binding (GPA-13 (C. elegans) [7]): binds

B4: F44B9.6 (LIN-36) (domain or fragment, UniProt P34427 682-962)
chain: LARSFVAGVRPSMAKYQIPLESFTATASLGGGRSLSSGVISRPPTSSSPGGIFSQRVMGAVAQEKGPAKRPSVLSRRPLILSPRKKTSTPRPTLSHHESSPNFSASSPVVVSDEYLIPATDMEVEMVEEVIDSMGNSSSEDVATSSTSSERQPMLTLAEALEMDGSSGTVKDQDMEEISKEMMKDAHYYRAMEDAIKCRTVTKMRADMRLSRHCIRQIEAARARARLFGERTEDYQIFYSNDGAQVLTKKDPKWRELQQQQQQQQQQQEQFPGQGSSDSQQ
binding (GOA-1 (C. elegans) [8]): binds | binding (GOA-1-QL (C. elegans)): no binding | binding (GOA-1 (C. elegans) [9]): binds | binding [10]: binds weakly

B5: F59H5.1 (domain or fragment, UniProt Q9TZI4 501-742)
chain: SYVYDLFIFNETFGTAENPEPLCSVSQNRAEKFMLVSQLVFRFISRFEALEDRRIAWITPNAQVAPKEPVPAPSKKKSAFEAYQSSPQTFDTIQRFSTKRPFFCGDNFQIPPKKPFLAEEDVKLEPMEYENSEQIVENAEIKLEPAEELLDAETVTVEEFLMNSYSTAAPSTSTAPAPPKAPVTAPPAPQKSAQLLGKIDFAIGKMRENFDRFLQFAQQNSADLTVVQRYRYDAQMQQMTEK
binding (GOA-1 (C. elegans) [8]): binds | binding (GOA-1-QL (C. elegans)): no binding | binding (GOA-1 (C. elegans) [9]): binds

B6: NHR-22 fused to GFP (pRP2228) (protein, UniProt Q09587 1-579)
chain: MSTDLLYEYFYPPTDLFKNTFEDVPPSPESLDVGDSLGSSPSYDLGFQPSFDIDFCIWKEGSSSPPPESNHLPEIVNKASTSPRGMPSPLTDSRSCHVCSSPTANTLHFGGRSCKACAAFFRRSVSMSMTYECIGTGDDTNPCRTHYELRMICRHCRFIKCLDAGMRRELVQARKEETRVAKRRSKGLVVSKKEDDDVESSYDEYVNTYTNVQDSSPKMESGINEMTIPESYLSPDPSSSQPLDMTVTPPPLHRSTPSILLTPATGDRMHCQRVLSNSPPFDIHQASTSHAGFIQHVQFYPVVEVENKIFELVDHYVRTEASLNDRRKIMYTDTQIRDVFDTTCECPYENHQLKPFNYKSFCGFVKHDFVMILDYVNQFPEFQALHKNDKNVVYRMACAVDSMLASAYYSYKVGIEKERLILFNGDYINMNPIPISGDEPGAGTEFQTPQEHEKYKTLMPLKLKQYFDLAIPFARLEVSFEEYVLLKALIIWQISNYRLLEEGRAICARQRDTIVQALHKVVEERGDEDPAIRVGQLLLSMSYITEQVQAMTNSYLVMTFFDVVSCDSIMYDLLSFRDD
binding [11]: binds
